Test results as given in patent publication US11384076B2, “Synthesis, pharmacology and use of new and selective FMS-like tyrosine kinase 3 (FLT3) FLT3 inhibitors” (UNIVERSITÄT REGENSBURG, priority 2017, dated 2022).

What was measured:
[1] = tested on: MV4-11 cells
[2] = tested on: Ba/F3 WT; experiment: Ba/F3 cell number IC50, trypan blue staining; type: cell-based, murine; conditions: for IC50: Mus musculus
Method: (§1) IC50 values were calculated by means of the Prism Graphpad software.

[3] = Tolerability in xenotransplanted mice; type: in vivo; conditions: doses up to 100 mg/kg
Method: To test the tolerability and in vivo efficacy of Marbotinib, xenotransplantation assays using NOD/SCID/yc (NSG) mice were performed. In a first experiment, 10×10^6 MV4-11 cells were transplanted subcutaneously into recipient mice (day 0). […] As a control, a cohort of transplanted mice were treated with the FLT3-inhibitor PKC412 (100 mg/kg). To investigate target efficacy, mice were sacrificed 24 hours after beginning of treatment. Upon preparation of single cell suspension derived from subcutaneous tumor nodes (90-100 cm^3), protein lysates were extracted immunoblot analyses performed.
(§2) Altogether, 18 mice were treated with different concentrations of Marbotinib either by oral administration (N=14) or intraperitoneal injections (N=4). Mice were sacrificed either 4 hours (N=9) or 24 hours (N=9) after start of treatment.

[4] = tested on: Ba/F3 FLT3 ITD D835Y; experiment: Ba/F3 cell number IC50, trypan blue staining; type: cell-based, murine
Method: as §1

[5] = tested on: Ba/F3 FLT3 ITD N676K; experiment: Ba/F3 cell number IC50, trypan blue staining; type: cell-based, murine
Method: as §1

[6] = tested on: Ba/F3 FLT3 ITD; experiment: Ba/F3 cell number IC50, trypan blue staining; type: cell-based, murine
Method: as §1

[7] = tested on: Ba/F3 FLT3 D835Y; experiment: Ba/F3 cell number IC50, trypan blue staining; type: cell-based, murine
Method: as §1

[8] = tested on: Ba/F3 FLT3 D835YN676K; experiment: Ba/F3 cell number IC50, trypan blue staining; type: cell-based, murine
Method: as §1

[9] = Solubility, enhancement by transformation to a carbamate prodrug; conditions: water
[10] = tested on: MV4;11 cells; experiment: Long-term efficacy, survival after intravenous MV4;11 transplantation; type: in vivo, mice; conditions: 50 mg/kg bodyweight qd, oral gavage, 5 days from day 22, vs vehicle
Method: FIG. 12: Description of experimental set-up and treatment strategy.
FIG. 13: Kaplan-Meier survival curves. Recipient mice were transplanted with 1×106 MV4;11 cells by intravenous tail vein injection. Treatment with PKC412, (N=5; 50 mg/kg bodyweight, qd) Marbotinib (N=5; 50 mg/kg bodyweight, qd) or vehicle control (N=4) was started at day 22 post transplantation by oral gavage. Mice were treated for 5 days followed by an observation period and moribund mice were sacrificed. Differences in survival were analyzed by log-rank analyses.
as §2

[11] = tested on: FLT3-ITD in MV4-11 cells; experiment: Dephosphorylation of FLT3-ITD and downstream targets over time, Western blot; type: cell-based, human; conditions: 5 nM; 2 h, 6 h, 16 h, 24 h
Excerpt: Whole cell lysates were used for SDS-Page and Western blot. The blots show dephosporylation of FLT3-ITD and some of its downstream targets, cell cycle regulators, and DNA damage regulators after treatment with FLT3-inhibitors over time. GAPDH was used as loading control. Control is indicated as CTRL. Marbotinib is indicated as FLT3i3 and Marbotinib-Carbamat is indicated as FLT3i540.

[12] = tested on: MV4-11 cells; experiment: Vitality assay, DAPI staining, flow cytometry; type: cell-based, human; conditions: 1, 5, 10, 100 nM, 48 h; especially at 1 nM, 5 nM and 10 nM
Method: FIG. 14: Results of vitality assay in which MV4-11 cells were exposed to FLT3-inhibitors Marbotinib, Marbotinib Carbamate and ACC220, at different concentrations, and cell viability staining was performed.
MV4-11 cells were treated with FLT3-inhibitors at different concentrations (1 nM, 5 nM, 10 nM, 100 nM) for 48 h. Viability staining was performed using life cell staining with DAPI. Samples were analysed using flow cytometry via FACS Canto; N=3.

[13] = Mus musculus, Ba/F3 FLT3-ITD, 72 hours, N=3
[14] = Mus musculus, BaF3, 72 hours, N=3

In the case of `CC(C)(C)c1cc(NC(=O)Nc2ccc(-c3cn4c(n3)sc3cc(OCCN5CCOCC5)ccc34)cc2)no1.Cl.Cl` [AC220, N-(5-tert-Butyl-isoxazol-3-yl)-N′-{4-[7-(2-morpholin-4-yl-ethoxy)imidazo[2,1-b][1,3]benzothiazol-2-yl]phenyl}urea Dihydrochloride, reference compound], the “highest dose that can be dosed” value ([1]; mice, gavage) is reported as ≤ 50 mg/kg and the IC50 ([2]; BaF3, 72 h) is reported as 3.56 ± 0.326 nM.

In the case of `CC(C)(C)c1cc(NC(=O)Nc2ccc3oc(C(=O)c4cc5cc(O)ccc5[nH]4)cc3c2)no1` [Marbotinib, 1-(5-(tert-butyl)isoxazol-3-yl)-3-(2-(5-hydroxy-1H-indole-2-carbonyl)benzofuran-5-yl)urea], the tolerability [3] is reported as “good tolerability”, the Ratio of activity ([4]; Marbotinib vs. 7 (AC220)) is reported as 7.8 and the IC50 [4, 13] is reported as 17.9 ± 0.914 nM. The Ratio of activity ([5]; Marbotinib vs. 7 (AC220)) was 1.2, the IC50 [5, 13] was 16.5 ± 0.973 nM and the Ratio of activity ([6]; Marbotinib vs. 7 (AC220)) was 3.7. For the same molecule, the IC50 [6, 13] was 2.06 ± 0.346 nM, the Ratio of activity ([7]; Marbotinib vs. 7 (AC220)) was 5.8 and the IC50 [7, 14] was 1.14 ± 0.853 nM. The Ratio of activity ([8]; Marbotinib vs. 7 (AC220)) was 2.3, the IC50 [8, 14] was 17.5 ± 0.9 nM and the Ratio of activity ([2]; Marbotinib vs. 7 (AC220), Ba/F3 WT) was 1.2. The IC50 ([2]; BaF3, Ba/F3 WT, 72 hours, N=3, read-out: IC50) was 2.95 ± 0.852 nM, the solubility [9] was < 1000 µg/mL and the overall survival [10] was “significant prolonged overall survival”.

With `CC(C)(C)c1cc(NC(=O)Nc2ccc3oc(C(=O)c4cc5cc(OC(=O)N6CCC(N7CCCCC7)CC6)ccc5[nH]4)cc3c2)no1.Cl` [Marbotinib-Carbamat] the “block of FLT3-ITD and its associated signaling cascades” value [11] was “effectively block”, the “percent survival of mice” value ([1]; once per day by gavage, day 14 to day 18 after injection) was “clearly increased” and the solubility [9] was 3000 to 4000 µg/mL. For the same molecule, the “cell viability, efficacy compared with AC220” value [12] was “more effective than compound AC220”.

In the case of `CO[C@@H]1[C@H](N(C)C(=O)c2ccccc2)C[C@H]2O[C@]1(C)n1c3ccccc3c3c4c(c5c6ccccc6n2c5c31)C(=O)NC4` [PKC412, reference compound], the overall survival [10] is reported as “No difference”.

Where two headings read alike, the source gives them in different places.
